Test results reported in PubChem BioAssay (Tox21).
The inconclusive results got no clear call from the source; some entries with a clear call stand among them for comparison. For some assays here: Where the call is inconclusive, the potency comes from a doubtful curve fit. Active and inactive are the calls of the source. Unless noted, the call rests on the fitted dose curve; in most records, active means well fitted curve in the direction sought with a large enough effect in the repeat runs; inconclusive means weak or mixed curves; inactive means no such curve, though single readings can be large; an effect the other way counts as inactive or inconclusive.

Columns and labels:
[1] = qHTS assay to identify small molecule antagonists of the TGF-beta/Smad signaling pathway (AID 1346924; active means well fitted inhibition curve with a large enough effect in the signal ratio in the repeat runs, not every such curve was filed as active; inconclusive means weak or mixed curves; the % refers to the signal ratio); conditions: SBE-bla HEK293T, TGF-beta/Smad reporter, beta-lactamase ratio; activity, negative = inhibition: at 76.8 µM (top of the series) unless noted
Method in brief: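 SBE-bla HEK 293T cells were plated overnight, then received compound in DMSO plus TGF-beta1 (added as a 0.25 ng/mL solution) and were incubated 5 h at 37 C. Beta-lactamase reporter activity was read after 2 h at room temperature with LiveBLAzer B/G FRET substrate (ex 405, em 460/530 nm).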

[2] = molecular target: Cytochrome P450 2C9 (Homo sapiens) (UniProt P11712); assay: Cytochrome P450 Family 2 Subfamily C Member 9 (CYP2C9) small molecule antagonists: luciferase reporter qHTS assay (AID 1671198); further: potency means the concentration at half of the fitted maximal effect; nearly all actives have a fitted effect of over 50% in size
Method in brief: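 P450-Glo proluciferin substrate with CYP2C9 enzyme; 10 min RT preincubation, then NADPH regeneration 1 h at 37C; luciferin detection reagent 20 min RT, luminescence in relative luminescence units.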

[3] = molecular target: Voltage-gated inwardly rectifying potassium channel KCNH2 (Homo sapiens) (UniProt Q12809); assay: Human Ether-a-go-go-Related Gene (hERG) channel small molecule antagonists: fluorescence cell-based qHTS assay (AID 1671200); further: potency means the concentration at half of the fitted maximal effect; nearly all actives have a fitted effect of over 50% in size
Method in brief: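 Quantitative HTS in hERG-U2OS cells: thallium entry through the channel reports activity, read as continuous 480/540 nm fluorescence over 2 min after stimulus addition.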

[4] = molecular target: Cytochrome P450 3A4 (Homo sapiens) (UniProt P08684); assay: Cytochrome P450 Family 3 Subfamily A Member 4 (CYP3A4) small molecule antagonists: luciferase reporter qHTS assay (AID 1671201); further: potency means the concentration at half of the fitted maximal effect; nearly all actives have a fitted effect of over 50% in size
Method in brief: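 Inhibition of CYP3A4 is measured as loss of light: the enzyme converts a proluciferin substrate to luciferin, detected luminescently. Reaction ran 1 h at room temperature with NADPH regeneration after a 10 min compound preincubation.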

[5] = Human pregnane X receptor (PXR) small molecule agonists, qHTS cell viability counter screen (AID 1346977); further: nearly all actives have a fitted effect of over 50% in size; further: potency means the concentration at half of the fitted maximal effect
Method in brief: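 Measures live-cell protease fluorescence (CellTiter-Fluor) in PXR-Luc HepG2 cells treated 24hr with compounds at 37C. Cells had 5hr to attach before pin transfer of DMSO solutions.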

[6] = Caspase-3/7 induction in CHO-K1 cells by small molecules, qHTS cell viability counter screen (AID 1346979); further: potency means the concentration at half of the fitted maximal effect; nearly all actives have a fitted effect of over 35% in size
Method in brief: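 In the same wells as the caspase read, viability of compound-treated wild-type CHO-K1 cells was assessed using CellTiter-Fluor, added after 16hr at 37C and measured by fluorescence following 1hr further incubation.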

[7] = Caspase-3/7 induction in HepG2 cells by small molecules, qHTS cell viability counter screen (AID 1346981); further: nearly all actives have a fitted effect of over 30% in size; further: potency means the concentration at half of the fitted maximal effect
Method in brief: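 Counter screen for cytotoxicity: HepG2 exposed 16 hr to compounds, then CellTiter-Fluor viability signal (fluorescence, 1 hr reagent incubation).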

[8] = molecular target: Cytochrome P450 1A2 (Homo sapiens) (UniProt P05177); assay: Cytochrome P450 Family 1 Subfamily A Member 2 (CYP1A2) small molecule antagonists: luciferase reporter qHTS assay (AID 1671199)
Method in brief: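 Signal from luciferin formed by CYP1A2 from a proluciferin substrate is read as luminescence, expressed in relative luminescence units. Compounds sit with enzyme 10 min, NADPH-driven reaction runs 1 h, all at room temperature.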
Tags describe the fitted curve by direction and shape.

Chain of UniProt Q12809 (Q12809 whole entry, looked up): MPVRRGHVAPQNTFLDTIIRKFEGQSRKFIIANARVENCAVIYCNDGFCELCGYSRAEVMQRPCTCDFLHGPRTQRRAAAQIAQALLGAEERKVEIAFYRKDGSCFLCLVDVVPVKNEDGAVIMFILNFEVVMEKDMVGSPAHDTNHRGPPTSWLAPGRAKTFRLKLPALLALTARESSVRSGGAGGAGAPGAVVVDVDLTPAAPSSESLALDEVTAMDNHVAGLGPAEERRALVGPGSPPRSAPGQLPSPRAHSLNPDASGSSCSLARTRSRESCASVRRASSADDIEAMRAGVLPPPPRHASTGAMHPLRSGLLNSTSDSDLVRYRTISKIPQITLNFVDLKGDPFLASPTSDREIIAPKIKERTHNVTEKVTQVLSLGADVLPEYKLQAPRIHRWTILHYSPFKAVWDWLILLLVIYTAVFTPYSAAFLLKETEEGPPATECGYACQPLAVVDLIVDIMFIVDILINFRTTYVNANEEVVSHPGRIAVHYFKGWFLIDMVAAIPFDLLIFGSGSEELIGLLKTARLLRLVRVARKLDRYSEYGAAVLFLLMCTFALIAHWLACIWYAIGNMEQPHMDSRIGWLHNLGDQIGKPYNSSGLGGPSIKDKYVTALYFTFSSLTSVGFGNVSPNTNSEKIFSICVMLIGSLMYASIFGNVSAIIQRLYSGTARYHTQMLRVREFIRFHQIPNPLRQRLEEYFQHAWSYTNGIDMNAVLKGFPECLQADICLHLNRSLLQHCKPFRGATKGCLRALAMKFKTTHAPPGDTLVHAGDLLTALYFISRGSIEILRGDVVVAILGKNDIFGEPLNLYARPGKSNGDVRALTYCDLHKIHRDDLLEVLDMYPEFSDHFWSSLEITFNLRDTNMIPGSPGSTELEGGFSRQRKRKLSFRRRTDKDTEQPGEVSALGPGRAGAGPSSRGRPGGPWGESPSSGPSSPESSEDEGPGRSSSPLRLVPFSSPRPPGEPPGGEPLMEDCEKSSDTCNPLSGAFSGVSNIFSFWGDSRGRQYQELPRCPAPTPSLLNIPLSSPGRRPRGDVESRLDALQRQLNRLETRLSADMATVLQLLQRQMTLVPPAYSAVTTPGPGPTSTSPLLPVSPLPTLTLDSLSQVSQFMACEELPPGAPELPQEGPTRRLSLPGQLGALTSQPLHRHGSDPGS
Chain of UniProt P11712 (P11712 whole entry, looked up): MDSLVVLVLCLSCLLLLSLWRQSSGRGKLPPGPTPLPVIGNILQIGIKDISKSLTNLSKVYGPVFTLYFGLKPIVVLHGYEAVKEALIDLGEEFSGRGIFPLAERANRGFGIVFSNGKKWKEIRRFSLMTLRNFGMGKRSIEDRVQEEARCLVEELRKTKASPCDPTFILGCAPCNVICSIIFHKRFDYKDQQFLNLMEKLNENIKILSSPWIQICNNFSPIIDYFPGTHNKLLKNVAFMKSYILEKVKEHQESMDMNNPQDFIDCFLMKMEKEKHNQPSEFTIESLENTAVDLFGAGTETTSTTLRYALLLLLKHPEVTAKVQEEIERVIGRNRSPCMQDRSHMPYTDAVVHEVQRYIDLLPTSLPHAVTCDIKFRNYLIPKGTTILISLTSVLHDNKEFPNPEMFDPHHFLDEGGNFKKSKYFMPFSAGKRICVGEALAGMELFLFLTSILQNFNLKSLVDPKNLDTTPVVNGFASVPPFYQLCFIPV
Chain of UniProt P08684 (P08684 whole entry, looked up): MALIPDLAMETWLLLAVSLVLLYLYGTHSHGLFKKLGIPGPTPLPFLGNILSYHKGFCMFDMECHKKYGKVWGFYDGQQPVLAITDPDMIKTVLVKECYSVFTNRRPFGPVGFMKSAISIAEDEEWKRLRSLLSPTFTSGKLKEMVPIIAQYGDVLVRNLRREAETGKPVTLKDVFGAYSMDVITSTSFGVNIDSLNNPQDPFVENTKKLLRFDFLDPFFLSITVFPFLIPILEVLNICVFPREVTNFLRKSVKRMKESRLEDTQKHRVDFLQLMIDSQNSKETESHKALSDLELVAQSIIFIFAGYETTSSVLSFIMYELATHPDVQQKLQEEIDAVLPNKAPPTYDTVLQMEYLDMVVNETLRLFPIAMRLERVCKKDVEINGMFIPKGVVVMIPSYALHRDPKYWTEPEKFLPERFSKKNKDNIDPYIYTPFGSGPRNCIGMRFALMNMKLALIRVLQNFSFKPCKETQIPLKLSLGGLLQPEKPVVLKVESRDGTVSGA
Chain of UniProt P05177 (P05177 whole entry, looked up): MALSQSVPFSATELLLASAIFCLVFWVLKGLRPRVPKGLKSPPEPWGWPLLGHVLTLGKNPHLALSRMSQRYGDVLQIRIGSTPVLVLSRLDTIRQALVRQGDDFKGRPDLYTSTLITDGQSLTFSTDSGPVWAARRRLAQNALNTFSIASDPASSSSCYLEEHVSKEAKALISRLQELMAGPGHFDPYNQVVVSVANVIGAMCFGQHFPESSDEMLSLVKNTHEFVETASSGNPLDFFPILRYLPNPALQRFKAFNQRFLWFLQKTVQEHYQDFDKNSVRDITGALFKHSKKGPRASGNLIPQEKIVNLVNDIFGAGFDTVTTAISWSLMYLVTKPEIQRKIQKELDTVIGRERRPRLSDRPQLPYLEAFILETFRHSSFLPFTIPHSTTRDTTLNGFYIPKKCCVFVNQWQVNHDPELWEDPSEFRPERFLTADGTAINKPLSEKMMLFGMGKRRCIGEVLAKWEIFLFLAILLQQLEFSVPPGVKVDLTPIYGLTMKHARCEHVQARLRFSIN

## CCN(Cc1cccnc1)C(=O)c1cccc(Cl)c1[C@]1(C)C(=O)N(Cc2ccc(OC)cc2OC)c2ccc(Cl)cc21
[1]
  activity, negative = inhibition: inconclusive: -2.33%
[2]
  Potency: active: 1.87 µM
[3]
  Potency: inconclusive: 5.13 µM [inhibitor, full curve]
[4]
  Potency: active: 0.132 µM

## C[C@@H](CN(C)C)CN1c2ccccc2Sc2ccccc21
[5]
  Potency: inconclusive: 26.6 µM [cytotoxic, partial curve]
[6]
  Potency: inconclusive: 29.8 µM [cytotoxic, single point]
[7]
  Potency: inactive
[3]
  Potency: active: 9.52 µM

## Nc1nc(-c2ccccc2)c(Br)c(=O)[nH]1
[1]
  activity, negative = inhibition: inconclusive: -10.6% [at 35.3 µM]
[8]
  Potency: inactive

## CN(C)c1ccc(C(c2ccccc2)c2ccc(N(C)C)cc2)cc1
[5]
  Potency: inconclusive: 27.3 µM [cytotoxic, single point]
[6]
  Potency: active: 1.09 µM
[7]
  Potency: inconclusive: 30.6 µM [cytotoxic, partial curve]

## CCCCOc1ccc(CC(=O)NO)cc1
[5]
  Potency: inconclusive: 29.8 µM [cytotoxic, partial curve, poor fit]
[6]
  Potency: active: 23.7 µM
[7]
  Potency: inconclusive: 53.1 µM [cytotoxic, partial curve, poor fit]
[2]
  Potency: inconclusive: 21.9 µM [inhibitor, partial curve]

## CCc1cc(C(N)=S)ccn1
[5]
  Potency: inactive

## CC(=O)c1ccc2c(c1)Cc1ccccc1-2
[5]
  Potency: inconclusive: 7.7 µM [cytotoxic, full curve]

## CN(C)C(=N)N=C(N)N
[5]
  Potency: inconclusive: 27.3 µM [cytotoxic, single point]
